Measurements reported in the supplement of paper PMC8728848.
This is one part of the list.

How the values were obtained:
Assay in all cases: glycan array binding signal (z-score within array); higher = stronger binding
Details in all cases: glycan notation: IUPAC condensed, linker removed
[1] = target: Neu5Ac(a2-3)Gal(b1-3)GalNAc6S
In short: (§1)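 The Consortium for Functional Glycomics database supplied 3228 glycan arrays, of which those lacking an available protein sequence were dropped. The binding signal, a within-array Z-score, was averaged across arrays of the same protein sequence and across linkers. Negative scores can be read as non-binding.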

[2] = target: Neu5Ac(a2-3)Gal(b1-3)GlcNAc
In short: as §1

[3] = target: Neu5Ac(a2-3)Gal(b1-3)GlcNAc(b1-3)Gal(b1-3)GlcNAc
In short: as §1

[4] = target: Neu5Ac(a2-3)Gal(b1-3)GlcNAc(b1-3)Gal(b1-4)GlcNAc
In short: as §1

[5] = target: Neu5Ac(a2-3)Gal(b1-3)GlcNAc(b1-3)GalNAc
In short: as §1

[6] = target: Neu5Ac(a2-3)Gal(b1-3)GlcNAc6S
In short: as §1

[7] = target: Neu5Ac(a2-3)Gal(b1-3)[Fuc(a1-4)]GlcNAc
In short: as §1

[8] = target: Neu5Ac(a2-3)Gal(b1-3)[Fuc(a1-4)]GlcNAc(b1-3)Gal(b1-3)[Fuc(a1-4)]GlcNAc
In short: as §1

[9] = target: Neu5Ac(a2-3)Gal(b1-3)[Fuc(a1-4)]GlcNAc(b1-3)Gal(b1-4)[Fuc(a1-3)]GlcNAc
In short: as §1

[10] = target: Neu5Ac(a2-3)Gal(b1-3)[Neu5Ac(a2-3)Gal(b1-4)]GlcNAc
In short: as §1

[11] = target: Neu5Ac(a2-3)Gal(b1-3)[Neu5Ac(a2-6)]GalNAc
In short: as §1

Neu5Ac(a2-3)Gal(b1-4)Glc = target: Neu5Ac(a2-3)Gal(b1-4)Glc
In short: as §1

[12] = target: Neu5Ac(a2-3)Gal(b1-4)GlcNAc
In short: as §1

[13] = target: Neu5Ac(a2-3)Gal(b1-4)GlcNAc(b1-2)Man(a1-3)[GlcNAc(b1-2)Man(b1-4)GlcNAc(b1-2)Man(a1-6)]Man(b1-4)GlcNAc(b1-4)GlcNAc
In short: as §1

[14] = target: Neu5Ac(a2-3)Gal(b1-4)GlcNAc(b1-2)Man(a1-3)[Neu5Ac(a2-6)Gal(b1-4)GlcNAc(b1-2)Man(a1-6)]Man(b1-4)GlcNAc(b1-4)GlcNAc
In short: as §1

[15] = target: Neu5Ac(a2-3)Gal(b1-4)GlcNAc(b1-3)Gal
In short: as §1

[16] = target: Neu5Ac(a2-3)Gal(b1-4)GlcNAc(b1-3)Gal(b1-3)GlcNAc
In short: as §1

[17] = target: Neu5Ac(a2-3)Gal(b1-4)GlcNAc(b1-3)Gal(b1-4)GlcNAc
In short: as §1

[18] = target: Neu5Ac(a2-3)Gal(b1-4)GlcNAc(b1-3)Gal(b1-4)GlcNAc(b1-3)Gal(b1-4)GlcNAc
In short: as §1

[19] = target: Neu5Ac(a2-3)Gal(b1-4)GlcNAc(b1-3)Gal(b1-4)[Fuc(a1-3)]GlcNAc
In short: as §1

[20] = target: Neu5Ac(a2-3)Gal(b1-4)GlcNAc(b1-3)GalNAc
In short: as §1

[21] = target: Neu5Ac(a2-3)Gal(b1-4)GlcNAc(b1-6)[Gal(b1-3)]GalNAc
In short: as §1

[22] = target: Neu5Ac(a2-3)Gal(b1-4)GlcNAc(b1-6)[Neu5Ac(a2-3)Gal(b1-3)]GalNAc
In short: as §1

[23] = target: Neu5Ac(a2-3)Gal(b1-4)GlcNAc6S
In short: as §1

[24] = target: Neu5Ac(a2-3)Gal(b1-4)[Fuc(a1-3)]GlcNAc
In short: as §1

[25] = target: Neu5Ac(a2-3)Gal(b1-4)[Fuc(a1-3)]GlcNAc(b1-3)Gal
In short: as §1

[26] = target: Neu5Ac(a2-3)Gal(b1-4)[Fuc(a1-3)]GlcNAc(b1-3)Gal(b1-4)GlcNAc
In short: as §1

[27] = target: Neu5Ac(a2-3)Gal(b1-4)[Fuc(a1-3)]GlcNAc(b1-3)Gal(b1-4)[Fuc(a1-3)]GlcNAc(b1-3)Gal(b1-4)[Fuc(a1-3)]GlcNAc
In short: as §1

[28] = target: Neu5Ac(a2-3)Gal(b1-4)[Fuc(a1-3)]GlcNAc(b1-3)GalNAc
In short: as §1

[29] = target: Neu5Ac(a2-3)Gal(b1-4)[Fuc(a1-3)]GlcNAc(b1-6)[Gal(b1-3)]GalNAc
In short: as §1

[30] = target: Neu5Ac(a2-3)Gal(b1-4)[Fuc(a1-3)]GlcNAc6S
In short: as §1

[31] = target: Neu5Ac(a2-3)Gal6S(b1-4)GlcNAc
In short: as §1

[32] = target: Neu5Ac(a2-3)Gal6S(b1-4)[Fuc(a1-3)]GlcNAc
In short: as §1

Neu5Ac(a2-3)GalNAc = target: Neu5Ac(a2-3)GalNAc
In short: as §1

[33] = target: Neu5Ac(a2-3)GalNAc(b1-4)GlcNAc
In short: as §1

[34] = target: Neu5Ac(a2-3)[GalNAc(b1-4)]Gal(b1-4)Glc
In short: as §1

[35] = target: Neu5Ac(a2-3)[GalNAc(b1-4)]Gal(b1-4)GlcNAc
In short: as §1

[36] = target: Neu5Ac(a2-3)[GalNAc(b1-4)]Gal(b1-4)GlcNAc(b1-3)GalNAc
In short: as §1

[37] = target: Neu5Ac(a2-3)[Neu5Ac(a2-6)]GalNAc
In short: as §1

Neu5Ac(a2-6)Gal = target: Neu5Ac(a2-6)Gal
In short: as §1

[38] = target: Neu5Ac(a2-6)Gal(b1-3)GlcNAc(b1-3)[Gal(b1-4)GlcNAc(b1-6)]Gal(b1-4)Glc
In short: as §1

Neu5Ac(a2-6)Gal(b1-4)Glc = target: Neu5Ac(a2-6)Gal(b1-4)Glc
In short: as §1

[39] = target: Neu5Ac(a2-6)Gal(b1-4)GlcNAc
In short: as §1

[40] = target: Neu5Ac(a2-6)Gal(b1-4)GlcNAc(b1-2)Man(a1-3)Man(b1-4)GlcNAc(b1-4)GlcNAc
In short: as §1

[41] = target: Neu5Ac(a2-6)Gal(b1-4)GlcNAc(b1-2)Man(a1-3)[Gal(b1-4)GlcNAc(b1-2)Man(a1-6)]Man(b1-4)GlcNAc(b1-4)GlcNAc
In short: as §1

B1: Gz-CVNH (Gibberella zeae) (protein)
chain: MGSSHHHHHHSSGLVPRGSHMGNFHESSNNIWLEDGHILHAECGNGEGDYVESTLDLDYYIGNDDGSFSWGGENFSGSASNITLDIEGDDNIPVLRAELNPMDGDPVEANVNLSERIGNDCGTLIFLA
- glycan array binding signal (z-score) [1]: -0.119
- glycan array binding signal (z-score) [2]: -0.131
- glycan array binding signal (z-score) [3]: -0.158
- glycan array binding signal (z-score) [4]: -0.126
- glycan array binding signal (z-score) [5]: -0.173
- glycan array binding signal (z-score) [6]: -0.141
- glycan array binding signal (z-score) [7]: -0.159
- glycan array binding signal (z-score) [8]: -0.074
- glycan array binding signal (z-score) [9]: -0.092
- glycan array binding signal (z-score) [10]: -0.153
- glycan array binding signal (z-score) [11]: -0.098
- glycan array binding signal (z-score) (Neu5Ac(a2-3)Gal(b1-4)Glc): -0.125
- glycan array binding signal (z-score) [12]: -0.145
- glycan array binding signal (z-score) [13]: -0.137
- glycan array binding signal (z-score) [14]: -0.143
- glycan array binding signal (z-score) [15]: -0.095
- glycan array binding signal (z-score) [16]: -0.154
- glycan array binding signal (z-score) [17]: -0.128
- glycan array binding signal (z-score) [18]: -0.115
- glycan array binding signal (z-score) [19]: -0.121
- glycan array binding signal (z-score) [20]: -0.158
- glycan array binding signal (z-score) [21]: -0.115
- glycan array binding signal (z-score) [22]: -0.127
- glycan array binding signal (z-score) [23]: -0.146
- glycan array binding signal (z-score) [24]: -0.139
- glycan array binding signal (z-score) [25]: -0.132
- glycan array binding signal (z-score) [26]: -0.028
- glycan array binding signal (z-score) [27]: -0.11
- glycan array binding signal (z-score) [28]: -0.034
- glycan array binding signal (z-score) [29]: 0.047
- glycan array binding signal (z-score) [30]: -0.128
- glycan array binding signal (z-score) [31]: -0.143
- glycan array binding signal (z-score) [32]: -0.142
- glycan array binding signal (z-score) (Neu5Ac(a2-3)GalNAc): -0.152
- glycan array binding signal (z-score) [33]: -0.117
- glycan array binding signal (z-score) [34]: -0.155
- glycan array binding signal (z-score) [35]: -0.136
- glycan array binding signal (z-score) [36]: -0.104
- glycan array binding signal (z-score) [37]: -0.147
- glycan array binding signal (z-score) (Neu5Ac(a2-6)Gal): -0.103
- glycan array binding signal (z-score) [38]: -0.108
- glycan array binding signal (z-score) (Neu5Ac(a2-6)Gal(b1-4)Glc): -0.13
- glycan array binding signal (z-score) [39]: -0.149
- glycan array binding signal (z-score) [40]: -0.135
- glycan array binding signal (z-score) [41]: -0.139
